Experimental findings from paper PMC12136788 are described below.

The chains are these.
T1: UNK ZnF1-3 (human, UniProt Q9C0B0 31-174)
T1 sequence: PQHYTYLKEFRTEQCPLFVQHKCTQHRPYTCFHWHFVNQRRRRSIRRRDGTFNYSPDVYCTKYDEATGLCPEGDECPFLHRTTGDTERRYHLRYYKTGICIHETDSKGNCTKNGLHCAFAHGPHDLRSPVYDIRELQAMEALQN

B1: chr7:54825262:54825263:-_ENSG00000132432_ENST00000352861|hu_hu|hu_hu_hu_mus_False|58_88 (ssRNA)
RNA: GGGAGUUCUACAGUCCGACGAUCCUGCCGGCUGGGCUCCACAAACUUUACCUGAUCAUCCAUGUUUGUUGGAUGGCACACCUAAAACGUAGAGACACGUAGCUCAGGAGAGAACCGAGCCCAACGGAACCGGAAGCUGGCAACCAACAGAGGAUUGAGCAUCA
B2: chr16:69481128:69481129:+_ENSG00000103018_ENST00000515314|hu_hu|motif|central (ssRNA)
RNA: GGGAGUUCUACAGUCCGACGAUCCAACGGAUGGAUAUCACCAAUGUAGUACUGCUUUAGCAUUUCUCUGGCAUCAGAAGAGUGUCCGGCAUCUUCAAAGCUUUCACUUGCAUCUACACCAGCUUGUUCCAGCAGAACCUCUUCCAACAGAGGAUUGAGCAUCA
B3: 97366611_97369984_2373_CDS_ENSG00000059573_ENST00000371224|human|control|control (ssRNA)
RNA: GGGAGUUCUACAGUCCGACGAUCUCGCAGCAGCCACUUAGUAGUAAGCAGUCCCUCAAGUCCUACUGGUCCCCGGGCGUGGAUUCUCGAUGUACUGAUUCCCACUUCAGCUCCCAGUCCAAAGCGGUAACCAUCAGAAAAGCGCAACAGAGGAUUGAGCAUCA
B4: chr22:19452774:19452775:-_ENSG00000070010_ENST00000399523|hu_hu|FALSE|FALSE (ssRNA)
RNA: GGGAGUUCUACAGUCCGACGAUCCUUUUCAUUAUAGUUGAUGGCAAUCACAUCCCCGGUGGUCAGACAGGCAAAGUUCCUAAGUGCGUUUUCUAAUACGGCUUUGGGGUUGGUGAUGUCCAGGAAGUCAGGGCUCUGAGGUUGCAACAGAGGAUUGAGCAUCA
B5: 87448077_87448931_1292_CDS_ENSG00000140948_ENST00000268616|human|control|control (ssRNA)
RNA: GGGAGUUCUACAGUCCGACGAUCUCGAGCCACACCACUGCUGGUGACCAGCGGCGGGGCCGAGGGGUUCAGGCACCGUCUCUCUGACUUCUCCUUUUCCAGCUCCAGCUGGGUCUUGAGCUUCUUCUUUGCCCCCAUGGUAAGCAACAGAGGAUUGAGCAUCA
B6: chr5:67447025:67447026:+_ENSMUSG00000037736_ENSMUST00000038188|mus_mus|FALSE|FALSE (ssRNA)
RNA: GGGAGUUCUACAGUCCGACGAUCCUGCACCUAUAAGGAACCCACAUGCAAAGAACCGUCUAGCAUGGAAAUAAAUAAUUGCUAGUCAUACUCCAUAAGACACAGAAAAAGUUAUUGCUUACAUAACAGAGAAACACCUACCUGCAACAGAGGAUUGAGCAUCA
B7: 59262636_59274477_945_CDS_ENSMUSG00000025234_ENSMUST00000171975|mouse|control|control (ssRNA)
RNA: GGGAGUUCUACAGUCCGACGAUCCAGGCGCAUAACUGUGUUGUCAUCCACUAAGAUAUCACAACCAUGCGCAGGACACGAAAUAGUCUGCCCCAUGCCUUCCUCCAUUAUUUUUGUAGUUAAAUAUUCACUCCAGCACUGCAUCAACAGAGGAUUGAGCAUCA
B8: 158618557_158618677_5722_3pUTR_ENSG00000272047_ENST00000607778|human|control|control (ssRNA)
RNA: GGGAGUUCUACAGUCCGACGAUCCUCGAAACACUCUCAUAAUAAGCAGAUGAUAUCUUUAUUUGGCCCUCCAAAAAGUCAACAAGCAAAAUGACUUGAGGAUCCAAAAAACUGUUACCAUGACCUUUGCUCUUGAUCAAUCUGCAACAGAGGAUUGAGCAUCA
B9: chr7:63234579:63234580:-_ENSMUSG00000047037_ENSMUST00000052204|mus_mus|motif|central (ssRNA)
RNA: GGGAGUUCUACAGUCCGACGAUCCCAACCAUCGGGAGCUCUGUGCUGCAGAGGUCUGGACCUCACCCUGGUGCAAAGCCGGUUGUCCACUGGAUUAUUAGUUCACAGGCAAUGCUCACCGAGAGUCUCUUCUACGUGACAUGUCAACAGAGGAUUGAGCAUCA
B10: chr4:76703833:76703834:+_ENSG00000138768_ENST00000264904|hu_mus|motif|central (ssRNA)
RNA: GGGAGUUCUACAGUCCGACGAUCAUUGGAAUUGUUGGUUUUUAACAAGUUUUGAAGUAAAAUCAAACAAUCUUCCACGGCGGUACCUCCGUCACUGUUCCCCUCCUCUGUAAUAAUGUCCAGCAGUCGCUCAAAAGCAUUUUCCAACAGAGGAUUGAGCAUCA
B11: chr14:103969519:103969520:+_ENSG00000075413_ENST00000216288|hu_hu|FALSE|FALSE (ssRNA)
RNA: GGGAGUUCUACAGUCCGACGAUCAUCACUGGGUUACAGCUUUAGCUCAUUGGCAAUUUUGGAAGCAAUAUUUUUGAAGGCUAUGGAUGUCCCCGAUAUCCGCUUAAACCGGACCCCGUUCAGAGACAGUCUUGGCAGCUUGCACAACAGAGGAUUGAGCAUCA
B12: chr3:32568357:32568358:-_ENSG00000144635_ENST00000273130|hu_mus|motif|central (ssRNA)
RNA: GGGAGUUCUACAGUCCGACGAUCCGUAGGAGAUGUAGGUGUUGUAGGAGAAACAGAAGCAGGUUUCCGUGUGAUUCUGUCGGGCUCUGCGUGAACAUCUGAAAGCACAGGUUUCUGGCCUGACUUUUUGGCGGACGGUGGCAACAACAGAGGAUUGAGCAUCA
B13: 169404172_169417782_497_CDS_ENSG00000172292_ENST00000392687|human|control|control (ssRNA)
RNA: GGGAGUUCUACAGUCCGACGAUCUUGUCGAAACCAGCGCUGAAUGCUUCGAACAUCCCAGUCCAGUUGCUUGGAGAGGCCUUCCAAUCUCUUUUCAUCAGGAUGCUUUGUAAUUGCAGUGAAGACCUUUUCCAGAAUGGCAUUCAACAGAGGAUUGAGCAUCA
B14: chr4:83987663:83987664:+_ENSG00000138663_ENST00000264389|hu_hu|motif|central (ssRNA)
RNA: GGGAGUUCUACAGUCCGACGAUCACGUCCUUCGGUUAUCAUUUGAGAUGCUAUCUUUUCCGCCUUAGCUGCAGGGAUCUCGGAAAGAGCUCCAAGUUCUUCGAAGGUAAUAUUAUUAUAUAAUUUGCUUGCAGACAACAAAUUCAACAGAGGAUUGAGCAUCA

Some of the results follow.

The experiment addresses T1, UNK ZnF1-3. Nature of the experiment: nsRBNS (natural sequence RNA bind-n-seq); RBNS binding buffer (assumed for nsRBNS): 25 mM Tris pH 7.5, 150 mM KCl, 3 mM MgCl2, 0.01% Triton X-100, 500 ug/ml BSA, 20 U/ml SUPERase-In, 4 C; UNK is unkempt and MSI1 is Musashi-1; names of the RNAs are library labels; protein concentration not given here; high values mean tight binding.
In turn, B1 registered a binding signal of 1.07 enrichment R.
With B2, the binding signal came to 1.12 enrichment R.
B3 yielded a binding signal of 1.09 enrichment R.
As for B4, the figure is 1.27 enrichment R; as for B5, 0.87 enrichment R.
As to B6, the binding signal was determined as 1.72 enrichment R.
For the molecule B7, the binding signal came to 0.994 enrichment R.
In turn, B8 returned a binding signal of 1.03 enrichment R.
Next, B9: 1.2 enrichment R; B10: 0.723 enrichment R; B11: 0.881 enrichment R.
As for B12, the figure is 0.886 enrichment R; as for B13, 0.659 enrichment R; as for B14, 0.952 enrichment R.
